{
  "source": "PubChem BioAssay AID588591",
  "about": "(National Center for Advancing Translational Sciences (NCATS), 2011)",
  "note": "In all, about 390,000 compounds went through this assay and about 4,700 (1.2%) were called active. The inconclusive results got no clear call from the source; some entries with a clear call stand among them for comparison. The call rests on the fitted dose curve; in most records, active means well fitted inhibition curve with a large enough effect; inconclusive means small, poorly fitted or top-dose-only effect, or another doubt; inactive means no such curve, though single readings can be large or run the other way. Where the call is inconclusive, the potency comes from a doubtful curve fit. A structure can be active in one record and inactive in another. On the % scale 0 is the no-effect control and ±100 the full control effect; potency means the concentration at half of the fitted maximal effect; tags describe the fitted curve by direction and shape.",
  "data": [
    {"target": "DNA polymerase eta (Homo sapiens) (UniProt Q9Y253)", "sequence (Q9Y253 whole entry, looked up)": "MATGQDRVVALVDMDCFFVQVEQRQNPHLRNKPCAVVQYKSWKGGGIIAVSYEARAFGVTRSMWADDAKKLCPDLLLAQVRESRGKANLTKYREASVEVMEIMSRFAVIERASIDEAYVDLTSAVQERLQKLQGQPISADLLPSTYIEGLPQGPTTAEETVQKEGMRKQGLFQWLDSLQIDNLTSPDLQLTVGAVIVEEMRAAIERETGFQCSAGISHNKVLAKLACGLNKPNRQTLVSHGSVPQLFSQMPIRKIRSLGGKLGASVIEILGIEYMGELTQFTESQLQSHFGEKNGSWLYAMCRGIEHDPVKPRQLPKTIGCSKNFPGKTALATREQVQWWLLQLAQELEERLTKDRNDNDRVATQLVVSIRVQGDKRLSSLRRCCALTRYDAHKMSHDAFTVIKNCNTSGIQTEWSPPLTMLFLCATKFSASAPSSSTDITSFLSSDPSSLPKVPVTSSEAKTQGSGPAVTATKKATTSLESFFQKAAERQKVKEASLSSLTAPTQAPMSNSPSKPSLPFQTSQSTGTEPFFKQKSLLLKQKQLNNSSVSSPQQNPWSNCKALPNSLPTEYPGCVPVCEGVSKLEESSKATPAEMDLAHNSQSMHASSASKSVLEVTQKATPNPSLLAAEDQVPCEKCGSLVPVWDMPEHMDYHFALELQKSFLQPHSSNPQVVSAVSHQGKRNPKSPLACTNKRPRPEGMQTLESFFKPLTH", "assay": "qHTS for Inhibitors of Polymerase Eta", "conditions": "recombinant Pol eta, fluorescent DNA replication assay; series mostly up to 114 µM; activity change, negative = inhibition: at the top concentration", "summary_of_the_method": "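Pol eta at 10 nM preincubated with compounds 15 min at room temperature; reaction started with fluorescent substrate (50 nM final) and read kinetically at 0 and 10 min.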", "values": [
      {"compound": "CCOc1ccc(NC(=O)CSc2oc(-c3ccc(C)cc3)nc2S(=O)(=O)c2ccc(C)cc2)cc1", "Potency": "active: 79.4 µM"},
      {"compound": "COC(=O)c1cc(C(=O)OC)n(Cc2ccc(C)cc2)c1C", "Potency": "active: 35.5 µM"},
      {"compound": "Cc1nc(SCCO)c([N+](=O)[O-])[nH]1", "activity change, negative = inhibition": "inactive: -25.4%"},
      {"compound": "O=C(NCC1CCCO1)C1CCN(C(=O)c2ccc(Cl)cc2)CC1", "note": "(stereo not given)", "Potency": "inconclusive: 31.6 µM [inhibitor, partial curve, poor fit]"},
      {"compound": "COc1ccc(CCNc2ncnc3onc(C)c23)c(OC)c1", "activity change, negative = inhibition": "inactive: -0.473%"},
      {"compound": "COc1cc(Br)cc(-c2nc3c(c(=O)[nH]c(=O)n3Cc3ccccc3)n2C)c1O", "Potency": "inconclusive: 39.8 µM [inhibitor, partial curve, poor fit]"},
      {"compound": "O=C(O)/C(CC(=O)c1ccc(Cl)cc1)=N/Nc1ccc([N+](=O)[O-])cc1[N+](=O)[O-]", "Potency": "active: 89.1 µM"},
      {"compound": "CC(=O)Nc1ccc(NC(=O)C2C3C=CC(C3)C2C(=O)O)cc1", "note": "(stereo not given)", "Potency": "inconclusive: 35.5 µM [inhibitor, partial curve, poor fit]"},
      {"compound": "Cc1ccc(-c2csc3ncnc(Nc4ccc(C(=O)O)cc4)c23)cc1", "Potency": "active: 79.4 µM"},
      {"compound": "O=C(CSc1nc2ccc(Nc3nc(N4CCOCC4)nc(N4CCOCC4)n3)cc2s1)N1CCOCC1", "Potency": "inconclusive: 15.8 µM [inhibitor, partial curve, poor fit]"},
      {"compound": "O=C(c1cn(-c2ccc(Cl)c(Cl)c2)nn1)C1CC1", "activity change, negative = inhibition": "inactive: -12.2%"},
      {"compound": "Cc1ccc(SCc2nc(-c3ccc(C(=O)NCC(C)c4ccccc4)cc3)oc2C)cc1", "note": "(stereo not given)", "activity change, negative = inhibition": "inactive: -16.2%"},
      {"compound": "Cc1cc([N+](=O)[O-])cc2c1NC(c1ccccn1)C1CC=CC21", "note": "(stereo not given)", "Potency": "inconclusive: 79.4 µM [inhibitor, partial curve, poor fit]"},
      {"compound": "O=C(Cc1nnc(NC(=O)Nc2ccc(F)cc2)s1)NCc1ccccc1", "activity change, negative = inhibition": "inactive: -5.17%"},
      {"compound": "COc1ccc(OC)c(/C=C(\\C#N)c2nc(-c3ccc(F)cc3)cs2)c1", "Potency": "inconclusive: 89.1 µM [inhibitor, partial curve, poor fit]"},
      {"compound": "CN(C)c1ccc(-c2nn3c(-c4ccccc4Cl)nnc3s2)cc1", "Potency": "inconclusive: 3.98 µM [inhibitor, full curve, poor fit]"},
      {"compound": "NC(=O)[C@@H]1CCCCNc2c(I)cc([N+](=O)[O-])cc2C(=O)N[C@@H](CCC(=O)O)C(=O)N[C@@H](CO)C(=O)N1", "Potency": "active: 6.31 µM"},
      {"compound": "CCOC(=O)Cc1csc(NC(=O)NC2(C(F)(F)F)Oc3ccc(Cl)cc3O2)n1", "note": "(stereo not given)", "activity change, negative = inhibition": "inactive: -13.9%"},
      {"compound": "Cc1ccc(-n2nc3c(=O)n(C(C)C(=O)NCc4ccccc4C)nc(C)c3c2C)cc1", "note": "(stereo not given)", "Potency": "active: 89.1 µM"},
      {"compound": "Cc1ccc2nc(Cl)c(/C=N/Nc3ccc(C(=O)O)cc3)cc2c1", "Potency": "active: 22.4 µM"},
      {"compound": "CC1(C)Cc2c(c(-c3ccco3)nc3sc4c(NCC5CCCO5)ncnc4c23)CO1", "note": "(stereo not given)", "Potency": "inconclusive: 25.1 µM [inhibitor, partial curve, poor fit]"},
      {"compound": "O=C(CSc1ccc(Cl)cc1)N1CCN(c2c(Cl)cccc2[N+](=O)[O-])CC1", "Potency": "inconclusive: 28.2 µM [inhibitor, partial curve, poor fit]"},
      {"compound": "Clc1ccc(Cn2cnc3ccccc32)cc1", "Potency": "inconclusive: 100 µM [inhibitor, partial curve, poor fit]"},
      {"compound": "NC(=O)c1ccsc1NC(=O)CSc1nnc2ccccn12", "Potency": "inconclusive: 44.7 µM [inhibitor, partial curve]"},
      {"compound": "O=C(COc1ccc(S(=O)(=O)N2CCCC2)cc1)NCc1ccco1", "Potency": "inconclusive: 39.8 µM [inhibitor, single point]"},
      {"compound": "O=C(Cc1ccc(Cl)cc1)Nc1ccc2oc(-c3ccccc3F)nc2c1", "Potency": "inconclusive: 89.1 µM [inhibitor, partial curve, poor fit]"},
      {"compound": "O=c1[nH]c(=S)[nH]c2c1C(c1ccc(Br)cc1)c1c([nH]c(=S)[nH]c1=O)O2", "Potency": "active: 2.24 µM"},
      {"compound": "Clc1ccc(CSc2nnc3c(n2)[nH]c2ccccc23)cc1", "Potency": "inconclusive: 35.5 µM [inhibitor, single point]"},
      {"compound": "CC(C)c1ccc(Nc2c(-c3ccc(N(C)C)cc3)nc3cnccn23)cc1", "activity change, negative = inhibition": "inactive: -16.9%"},
      {"compound": "CCCOc1ccc2[nH]c(C(=O)N/N=C/c3cc(OC)c(OC)c(OC)c3)cc2c1", "activity change, negative = inhibition": "inactive: -11.9%"},
      {"compound": "CC(C)CC1=C/C(=C/c2ccc(-c3ccccc3)o2)C(=O)O1", "Potency": "active: 2.82 µM"},
      {"compound": "Cc1cc2n(n1)CCC(=O)N2Cc1ccc(C(=O)Nc2cccc(C(F)(F)F)c2)cc1", "activity change, negative = inhibition": "inactive: -14.6%"},
      {"compound": "CCOc1ccccc1-n1nnnc1SCC(=O)NC(=O)NCc1ccco1", "Potency": "inconclusive: 89.1 µM [inhibitor, single point]"},
      {"compound": "Cn1ncc(C(N)=O)c1NC(=S)NC(=O)c1ccc(Br)o1", "Potency": "inconclusive: 20 µM [inhibitor, partial curve, poor fit]"},
      {"compound": "CCOC(=O)c1sc(NC(=O)C(C)C)c(C#N)c1C", "activity change, negative = inhibition": "inactive: -13.3%"},
      {"compound": "CC(C)NC(=O)c1sc(=S)n2c1[nH]c(=O)c1ccc(C(=O)NCCc3ccc(Cl)cc3)cc12", "Potency": "inconclusive: 17.8 µM [inhibitor, partial curve, poor fit]"},
      {"compound": "Cc1cccc(N2CCN(C(=O)c3cc4ccc5cccnc5c4[nH]3)CC2C)c1", "note": "(stereo not given)", "activity change, negative = inhibition": "inactive: -10.8%"},
      {"compound": "CN(C)S(=O)(=O)c1cccc(NC(=O)COC(=O)/C=C/c2ccco2)c1", "Potency": "inconclusive: 12.6 µM [inhibitor, full curve, poor fit]"},
      {"compound": "CCn1c(SCC(=O)N2CCCC(C)C2)nnc1-c1ccco1", "note": "(stereo not given)", "Potency": "inconclusive: 15.8 µM [inhibitor, full curve, poor fit]"},
      {"compound": "CS(=O)(=O)c1ccc(Cl)c(NC(=O)COC(=O)c2cccc(C#N)c2)c1", "Potency": "inconclusive: 79.4 µM [inhibitor, partial curve, poor fit]"},
      {"compound": "CCS(=O)(=O)Nc1cc2c3c(c1)CCN3C(=O)CC2", "activity change, negative = inhibition": "inactive: -15.1%"},
      {"compound": "COc1ccc(/C=C2/SC(=O)N(CCCCCC(=O)Nc3ccccc3C(=O)O)C2=S)cc1", "Potency": "inconclusive: 56.2 µM [inhibitor, partial curve, poor fit]"},
      {"compound": "Cn1ncc(Cl)c1C(=O)N/N=C/c1ccccn1", "Potency": "inconclusive: 89.1 µM [inhibitor, partial curve, poor fit]"},
      {"compound": "Cc1ccc(C(=O)Nc2cccc(NC(=O)c3ccc(C)c([N+](=O)[O-])c3)n2)cc1[N+](=O)[O-]", "Potency": "inconclusive: 79.4 µM [inhibitor, partial curve]"},
      {"compound": "O=C(O)CC1(C(=O)O)CC2C=CC1C2", "note": "(stereo not given)", "Potency": "inconclusive: 31.6 µM [inhibitor, single point]"},
      {"compound": "CCc1ccc(NC(=O)CS(=O)CC(=O)Nc2ccc(N3CCOCC3)cc2)cc1", "note": "(stereo not given)", "Potency": "inconclusive: 56.2 µM [inhibitor, partial curve, poor fit]"},
      {"compound": "CCOC(=O)c1sc(N/N=C/c2cc(Br)c(O)c(OC)c2)nc1C", "Potency": "active: 35.5 µM"},
      {"compound": "C=CCN1C=C2C(=O)C(C)(OC(=O)c3cnc4ccccc4n3)C(=O)C=C2C=C1/C=C/COC", "note": "(stereo not given)", "Potency": "active: 25.1 µM"},
      {"compound": "O=C(NCCNC1CCC(c2ccccc2)CC1)c1ccc(F)cc1", "note": "(stereo not given)", "Potency": "inconclusive: 89.1 µM [inhibitor, single point]"},
      {"compound": "O=C(N/N=C/c1ccc(OC(=O)c2ccccc2)cc1)c1ccc(CN2CCOCC2)cc1", "Potency": "inconclusive: 25.1 µM [inhibitor, single point]"},
      {"compound": "O=C(c1cc2ccccc2o1)N1CCN(c2ncccn2)CC1", "activity change, negative = inhibition": "inactive: -25%"},
      {"compound": "CC(C)(C)OC(=O)NCCCC[C@H](NC(=O)c1[nH]cnc1C(=O)Nc1ccc(CNC(=O)OC(C)(C)C)cc1)C(=O)OC(C)(C)C", "Potency": "inconclusive: 2 µM [inhibitor, partial curve, poor fit]"},
      {"compound": "COC(=O)c1ccc(CNC(=O)CN(CCC(C)C)S(=O)(=O)c2ccc3c(c2)OCCO3)cc1", "Potency": "inconclusive: 79.4 µM [inhibitor, partial curve, poor fit]"},
      {"compound": "O=C(Nc1ccc(-c2csc(Nc3ccccc3)n2)cc1)c1cc([N+](=O)[O-])cc(C(F)(F)F)c1", "Potency": "inconclusive: 79.4 µM [inhibitor, partial curve, poor fit]"},
      {"compound": "CC(=O)Nc1ccc(SCC(=O)Nc2cc(C(C)(C)C)nn2-c2ccccc2)cc1", "Potency": "inconclusive: 89.1 µM [inhibitor, partial curve, poor fit]"},
      {"compound": "COC(=O)COc1ccc(Oc2nc(NC(C)(C)C)nc(N(C)C)n2)nn1", "activity change, negative = inhibition": "inactive: -0.464%"},
      {"compound": "CSc1ccc(C2C(C(=O)c3ccco3)=C(O)C(=O)N2c2nnc(SC)s2)cc1", "note": "(stereo not given)", "Potency": "inconclusive: 2.51 µM [inhibitor, full curve, poor fit]"},
      {"compound": "CCOC(=O)C1=C(Cc2ccc(F)cc2)C(=O)c2ccccc2C1=O", "Potency": "inconclusive: 89.1 µM [inhibitor, single point]"},
      {"compound": "O=C1CSC(=S)N1Cc1cccnc1", "Potency": "inconclusive: 15.8 µM [inhibitor, partial curve, poor fit]"},
      {"compound": "COc1ccc(CCNc2nc3cc(OC)c(OC)cc3c3nc(-c4cccnc4)nn23)cc1OC", "activity change, negative = inhibition": "inactive: -22.2%"},
      {"compound": "COc1ccccc1-c1cc(C(=O)N/N=C/c2ccoc2)c2ccccc2n1", "Potency": "inconclusive: 14.1 µM [inhibitor, partial curve, poor fit]"},
      {"compound": "O=C(O)c1ccc(NS(=O)(=O)c2ccc3c(c2)C(=O)c2cc(S(=O)(=O)Nc4ccc(C(=O)O)cc4)ccc2-3)cc1", "Potency": "active: 39.8 µM"},
      {"compound": "COC1=C(OC)C(=O)c2ccccc2C1=O", "Potency": "inconclusive: 28.2 µM [inhibitor, single point]"},
      {"compound": "O=C(Cc1cccs1)Nc1nnc(SCc2ccc(C(F)(F)F)cc2)s1", "Potency": "inconclusive: 17.8 µM [inhibitor, partial curve, poor fit]"},
      {"compound": "COc1ccc(C(=O)Nc2nc3c(s2)Cc2cc(OC)ccc2-3)cc1", "Potency": "inconclusive: 10 µM [inhibitor, partial curve, poor fit]"}
    ]}
  ]
}
